Results: PMC4336329 (PLoS ONE, 2015)
The campaign covered roughly 310,000 compounds. About 14,000 (4.5%) showed an effect of 50% or more. The effect is printed as a negative number. Some of the results follow.

Target: human ether-à-go-go-related gene (hERG) potassium channel (human, UniProt Q12809)
Assay: primary screen, population patch clamp on CHO cells stably expressing hERG
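Further: peak tail current of the secondary pulse compared with the same well before compound.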

Sequence of human ether-à-go-go-related gene (hERG) potassium channel (Q12809 whole entry, looked up): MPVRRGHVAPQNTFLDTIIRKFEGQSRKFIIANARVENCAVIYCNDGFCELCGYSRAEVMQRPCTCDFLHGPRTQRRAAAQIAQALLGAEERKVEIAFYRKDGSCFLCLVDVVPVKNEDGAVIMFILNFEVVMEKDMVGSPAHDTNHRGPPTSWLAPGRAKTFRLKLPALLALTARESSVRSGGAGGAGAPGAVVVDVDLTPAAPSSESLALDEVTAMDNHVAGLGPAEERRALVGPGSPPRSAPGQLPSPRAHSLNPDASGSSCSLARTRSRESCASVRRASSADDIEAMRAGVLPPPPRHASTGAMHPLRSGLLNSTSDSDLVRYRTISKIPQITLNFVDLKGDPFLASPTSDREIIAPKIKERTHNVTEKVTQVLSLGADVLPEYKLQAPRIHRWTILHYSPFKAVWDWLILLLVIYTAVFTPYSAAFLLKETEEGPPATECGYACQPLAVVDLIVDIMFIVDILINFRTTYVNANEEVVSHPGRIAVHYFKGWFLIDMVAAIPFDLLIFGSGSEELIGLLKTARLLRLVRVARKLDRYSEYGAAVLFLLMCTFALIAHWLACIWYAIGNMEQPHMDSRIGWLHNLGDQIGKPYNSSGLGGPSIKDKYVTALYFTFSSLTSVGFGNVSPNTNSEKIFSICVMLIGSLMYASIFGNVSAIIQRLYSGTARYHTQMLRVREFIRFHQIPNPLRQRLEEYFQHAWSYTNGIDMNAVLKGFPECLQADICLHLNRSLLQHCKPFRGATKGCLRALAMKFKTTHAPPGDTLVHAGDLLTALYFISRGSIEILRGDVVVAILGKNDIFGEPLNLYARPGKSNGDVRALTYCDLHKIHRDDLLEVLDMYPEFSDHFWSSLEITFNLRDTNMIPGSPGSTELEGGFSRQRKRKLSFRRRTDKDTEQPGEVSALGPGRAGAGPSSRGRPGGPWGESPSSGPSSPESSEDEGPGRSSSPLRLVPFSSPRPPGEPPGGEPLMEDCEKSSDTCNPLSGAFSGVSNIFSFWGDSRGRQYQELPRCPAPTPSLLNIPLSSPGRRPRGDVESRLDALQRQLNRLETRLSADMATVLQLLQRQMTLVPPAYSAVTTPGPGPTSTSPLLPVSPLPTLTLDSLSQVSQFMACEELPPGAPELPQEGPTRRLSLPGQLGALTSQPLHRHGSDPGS

Compared with `Cc1cccc2sc(NC(=O)CCNS(=O)(=O)c3cccc4nonc34)nc12`, `Cc1ccccc1Nc1c([N+](=O)[O-])ccc2nonc12` is lower in “hERG current change (%, negative = inhibition) at 10uM” value: -1.93% for the first, -3.58% for the second.

Going from `CC(=O)Nc1nnc(CSCc2ccccc2F)s1` to `CCOC(=O)c1sc(=S)n(C)c1NC(=O)c1ccccc1Cl`, the “hERG current change (%, negative = inhibition) at 10uM” value rises from 12.3% to 16.5%.

Going from `CC(=O)c1sc(NC(=O)C(C)Oc2ccc3c(C)cc(=O)oc3c2)nc1C` (centres unmarked) to `Cc1cc(=O)oc(C)c1C(=O)N1CCN(c2ccc(F)cc2)CC1`, the “hERG current change (%, negative = inhibition) at 10uM” value falls from 13.6% to 5.27%.

Going from `Cc1cc([N+](=O)[O-])ccc1NC(=O)C[n+]1ccc(N(C)C)cc1.[Cl-]` to `Cc1ccc(N(C)S(=O)(=O)c2cccc(C(=O)Nc3nnc(C4CC4)s3)c2)cc1`, the “hERG current change (%, negative = inhibition) at 10uM” value rises from -7.98% to 15.9%.

Compared with `CN(C)CCCN1C(=O)C(O)=C(C(=O)c2cc3ccccc3o2)C1c1ccccc1` (centres unmarked), `CCc1nc(-c2ccccc2)c2ccccn12.O=C(O)C(=O)O` is lower in “hERG current change (%, negative = inhibition) at 10uM” value: 2.75% for the first, -11.2% for the second.

First: Cc1nn(-c2ccccc2)c(Oc2ccc(F)cc2)c1/C=N/n1cnnc1
Second: COC(=O)c1ccc(CSc2nnc(-c3ccncc3)n2Cc2ccccc2)o1
The “hERG current change (%, negative = inhibition) at 10uM” value of the first is lower: -31.5% for the first, -12.7% for the second.

Going from `CC(=O)Nc1ccc(S(=O)(=O)NC(C)c2ccccc2)cc1` (centres unmarked) to `C/C(=N\NC(=O)c1ccco1)c1ccc(NC(=O)c2ccccc2)cc1`, the “hERG current change (%, negative = inhibition) at 10uM” value falls from 13.2% to 1.17%.

Going from `Cc1ccnc(N=Cc2c(O)ccc3oc4c(c23)CCCC4)c1` to `COc1ccc(-n2c(=O)c3ccccc3n(CC(=O)NC3CCCC3)c2=O)c(OC)c1`, the “hERG current change (%, negative = inhibition) at 10uM” value falls from 0.567% to -0.373%.

First: O=C(CNC(=O)c1ccco1)OCC(=O)c1ccccc1Cl
Second: CCN(CC(=O)Nc1ccccc1OC)C(=O)c1ccc(NC(=O)c2cccs2)cc1
The “hERG current change (%, negative = inhibition) at 10uM” value of the first is higher: 0.293% for the first, -2.28% for the second.

First: COC(=O)N1CCc2c(sc(NC(=O)C3=COCCO3)c2C#N)C1
Second: CCC(=O)c1cc2c(cc1NC(=O)c1cccs1)OCCO2
The “hERG current change (%, negative = inhibition) at 10uM” value of the first is higher: 2.52% for the first, 1.86% for the second.

Compared with `CC(C)Cn1c(-c2ccco2)nc2c(c(=O)c3ccccc3n2C)c1=O`, `CCOc1ccccc1C(=O)Nc1cc(=O)n(C)c(=O)n1C` is higher in “hERG current change (%, negative = inhibition) at 10uM” value: -59.3% for the first, 4.38% for the second.

First: CCOc1ccc(-n2c(C)cc(C(=O)CCl)c2C)cc1
Second: Br.COc1ccc(C(=O)CN2Cc3ccccc3C2=N)cc1
The “hERG current change (%, negative = inhibition) at 10uM” value of the first is higher: -11.9% for the first, -42.3% for the second.

First: N#Cc1c(-c2ccccc2F)cc(C2CC2)nc1SCC(=O)c1cccs1
Second: N#Cc1c(N)nc(Sc2ccc(Cl)cc2)c(C#N)c1-c1ccccc1Cl
The “hERG current change (%, negative = inhibition) at 10uM” value of the first is higher: 33.9% for the first, 6.26% for the second.

Going from `COc1ccc(NC(=O)/C(=C\c2ccc(OS(=O)(=O)c3ccc(C)cc3)cc2)NC(=O)c2ccccc2)cc1` to `COc1ccc(S(=O)(=O)N2CCOC23CCN(S(=O)(=O)c2ccc(F)cc2)CC3)cc1`, the “hERG current change (%, negative = inhibition) at 10uM” value falls from 17.1% to -13.8%.

First: O=C1c2ccccc2C(=O)N1OCc1ccccc1[N+](=O)[O-]
Second: CC1(c2ccccc2)NC(=O)N(CC(=O)Nc2ccc(Cl)c(S(=O)(=O)N3CCCCC3)c2)C1=O (centres unmarked)
The “hERG current change (%, negative = inhibition) at 10uM” value of the first is higher: 23.7% for the first, -8.09% for the second.

First: CC(C)C[C@@]12C(=O)N(c3cccc(Cl)c3)C(=O)N1[C@H](c1ccc(F)cc1)[C@@H]1C(=O)N(C3CCCCC3)C(=O)[C@@H]12
Second: CC(C)(C)N(CC(=O)NC1CCCCC1)C(=O)CS(=O)CC(=O)Nc1ccc(F)cc1 (centres unmarked)
The “hERG current change (%, negative = inhibition) at 10uM” value of the first is lower: 4.21% for the first, 9.23% for the second.

Compared with `CCN(CC)C(=S)SC1=CCS(=O)(=O)C1`, `CN(c1nc(-c2ccc(Br)cc2)cs1)C1CCS(=O)(=O)C1` (centres unmarked) is lower in “hERG current change (%, negative = inhibition) at 10uM” value: 5.09% for the first, 1.16% for the second.

First: Cc1oncc1C(=O)Nc1cccc(C#N)c1
Second: O=C(NCC1CCCO1)c1ccc(NC(=O)c2cccc(Cl)c2)cc1 (centres unmarked)
The “hERG current change (%, negative = inhibition) at 10uM” value of the first is higher: 4.43% for the first, 1.14% for the second.

Compared with `CCOC(=O)/C(C#N)=C\c1ccc(N2CCN(C)CC2)cc1`, `COc1cccc(N2CCN(S(=O)(=O)c3c(C)[nH]c(C)c3C(=O)N3CCCC3)CC2)c1` is higher in “hERG current change (%, negative = inhibition) at 10uM” value: -38.2% for the first, 9.06% for the second.

Going from `COCCNC(=S)N(CCc1c(C)[nH]c2ccc(OC)cc12)Cc1ccco1` to `CCN1CCN(CCNC(=O)c2ccc(CS(=O)c3ccc(Cl)cc3)o2)CC1` (centres unmarked), the “hERG current change (%, negative = inhibition) at 10uM” value rises from -12.4% to 18%.

Going from `CCc1cc(=O)oc2c(C)c(OCC(=O)NCCN3CCOCC3)ccc12` to `O=C(NCN1CCCCC1)c1cnccn1`, the “hERG current change (%, negative = inhibition) at 10uM” value falls from -0.348% to -4.52%.

Compared with `O=C(Nc1ccc(F)c(F)c1)C1CCCN(S(=O)(=O)c2cnc[nH]2)C1` (centres unmarked), `O=C(NC1CCCC1)C(c1cccs1)N(C(=O)c1ccno1)c1ccccc1` (centres unmarked) is higher in “hERG current change (%, negative = inhibition) at 10uM” value: -9.69% for the first, 13.2% for the second.
